Measured values reported in the supplement of paper PMC8728848.
This is one part of the list.

What was measured:
Assay in all cases: glycan array binding signal (z-score within array); higher = stronger binding
Settings in all cases: glycan notation: IUPAC condensed, linker removed
[1] = molecular target: Neu5Ac(a2-3)Gal(b1-4)GlcNAc(b1-6)GalNAc
In short: (§1)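 Columns mapping to the same glycan were averaged after glycan names were converted to IUPAC-condensed notation. The data come from 3228 arrays in the Consortium for Functional Glycomics database, limited to those with an available protein sequence. Binding is reported as a within-array Z-score averaged across arrays of one protein sequence and across linkers.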

[2] = molecular target: Neu5Ac(a2-3)Gal(b1-4)GlcNAc(b1-6)[Gal(b1-3)]GalNAc
In short: as §1

[3] = molecular target: Neu5Ac(a2-3)Gal(b1-4)GlcNAc(b1-6)[Neu5Ac(a2-3)Gal(b1-3)]GalNAc
In short: as §1

[4] = molecular target: Neu5Ac(a2-3)Gal(b1-4)GlcNAc6S
In short: as §1

[5] = molecular target: Neu5Ac(a2-3)Gal(b1-4)[Fuc(a1-3)]GlcNAc
In short: as §1

[6] = molecular target: Neu5Ac(a2-3)Gal(b1-4)[Fuc(a1-3)]GlcNAc(b1-2)Man
In short: as §1

[7] = molecular target: Neu5Ac(a2-3)Gal(b1-4)[Fuc(a1-3)]GlcNAc(b1-3)Gal
In short: as §1

[8] = molecular target: Neu5Ac(a2-3)Gal(b1-4)[Fuc(a1-3)]GlcNAc(b1-3)Gal(b1-4)GlcNAc
In short: as §1

[9] = molecular target: Neu5Ac(a2-3)Gal(b1-4)[Fuc(a1-3)]GlcNAc(b1-3)Gal(b1-4)[Fuc(a1-3)]GlcNAc(b1-3)Gal(b1-4)[Fuc(a1-3)]GlcNAc
In short: as §1

[10] = molecular target: Neu5Ac(a2-3)Gal(b1-4)[Fuc(a1-3)]GlcNAc(b1-3)GalNAc
In short: as §1

[11] = molecular target: Neu5Ac(a2-3)Gal(b1-4)[Fuc(a1-3)]GlcNAc(b1-6)[Gal(b1-3)]GalNAc
In short: as §1

[12] = molecular target: Neu5Ac(a2-3)Gal(b1-4)[Fuc(a1-3)]GlcNAc(b1-6)[Neu5Ac(a2-3)Gal(b1-3)]GalNAc
In short: as §1

[13] = molecular target: Neu5Ac(a2-3)Gal(b1-4)[Fuc(a1-3)]GlcNAc6S
In short: as §1

[14] = molecular target: Neu5Ac(a2-3)Gal6S(b1-4)GlcNAc
In short: as §1

[15] = molecular target: Neu5Ac(a2-3)Gal6S(b1-4)[Fuc(a1-3)]GlcNAc
In short: as §1

Neu5Ac(a2-3)GalNAc = molecular target: Neu5Ac(a2-3)GalNAc
In short: as §1

[16] = molecular target: Neu5Ac(a2-3)GalNAc(b1-4)GlcNAc
In short: as §1

[17] = molecular target: Neu5Ac(a2-3)[GalNAc(b1-4)]Gal(b1-4)Glc
In short: as §1

[18] = molecular target: Neu5Ac(a2-3)[GalNAc(b1-4)]Gal(b1-4)GlcNAc
In short: as §1

[19] = molecular target: Neu5Ac(a2-3)[GalNAc(b1-4)]Gal(b1-4)GlcNAc(b1-3)GalNAc
In short: as §1

[20] = molecular target: Neu5Ac(a2-3)[Neu5Ac(a2-6)]GalNAc
In short: as §1

Neu5Ac(a2-6)Gal = molecular target: Neu5Ac(a2-6)Gal
In short: as §1

[21] = molecular target: Neu5Ac(a2-6)Gal(b1-3)GlcNAc(b1-3)[Gal(b1-4)GlcNAc(b1-6)]Gal(b1-4)Glc
In short: as §1

Neu5Ac(a2-6)Gal(b1-4)Glc = molecular target: Neu5Ac(a2-6)Gal(b1-4)Glc
In short: as §1

[22] = molecular target: Neu5Ac(a2-6)Gal(b1-4)GlcNAc
In short: as §1

[23] = molecular target: Neu5Ac(a2-6)Gal(b1-4)GlcNAc(b1-2)Man
In short: as §1

[24] = molecular target: Neu5Ac(a2-6)Gal(b1-4)GlcNAc(b1-2)Man(a1-3)Man(b1-4)GlcNAc(b1-4)GlcNAc
In short: as §1

[25] = molecular target: Neu5Ac(a2-6)Gal(b1-4)GlcNAc(b1-2)Man(a1-3)[Gal(b1-4)GlcNAc(b1-2)Man(a1-6)]Man(b1-4)GlcNAc(b1-4)GlcNAc
In short: as §1

[26] = molecular target: Neu5Ac(a2-6)Gal(b1-4)GlcNAc(b1-2)Man(a1-3)[GlcNAc(b1-2)Man(a1-6)]Man(b1-4)GlcNAc(b1-4)GlcNAc
In short: as §1

[27] = molecular target: Neu5Ac(a2-6)Gal(b1-4)GlcNAc(b1-2)Man(a1-3)[GlcNAc(b1-4)][Neu5Ac(a2-6)Gal(b1-4)GlcNAc(b1-2)Man(a1-6)]Man(b1-4)GlcNAc(b1-4)GlcNAc
In short: as §1

[28] = molecular target: Neu5Ac(a2-6)Gal(b1-4)GlcNAc(b1-2)Man(a1-3)[Man(a1-6)]Man(b1-4)GlcNAc(b1-4)GlcNAc
In short: as §1

B1: GS7807E-bfa-538-23-538 (Bacteroides fragilis) (protein)
chain: TDSFESFNTNEAGFDNDSKKQDFNYYGIPLGIIQQGIYFNYDWGSGKNWPFQTMQNLGADLFSGYVHDFNPFNEGKNNSTYYMMDGWNGSTWDNTYGYIMPEVQKSETINEKDNIGFFGITKILKVELMHRLSDLYGPIVYTQFGSKTGSTPDTQQEAYKAFFNDLDTGIAKIREYQKANPDIESFAKFDILMPQGKRTFSEWIRFANSLRLRLAVRIAMADSKLAVAEAQKALTDEEGLLEGNDEVVAVSTSSGYTNPFGEINKAWGEVFMNANMESLLVGYEDPRMEKYFDKATGSDATSLIDYKGTYKGIRQGTGFSHKNYNGHSKSTITQQTDAVLMTPAEVWFLRAEAALRGWSSESVKDCYEKGVKASFAQWGAAGAEAYLESDRKPSDYVDAFKAANNVKAVNTLTPKWDDAAGNEDKLGRIITQKWLAMFPEGGEAWAEQRRTGYPRLFPVLVNQSEGTVDTNLGPRRLNFFVGIKTTNPEQYTQLVNALGGIDNCGTRLWWDTGRNF
[1]
  glycan array binding signal (z-score): 0.432
[2]
  glycan array binding signal (z-score): -0.679
[3]
  glycan array binding signal (z-score): -0.658
[4]
  glycan array binding signal (z-score): -0.628
[5]
  glycan array binding signal (z-score): -0.694
[6]
  glycan array binding signal (z-score): -0.622
[7]
  glycan array binding signal (z-score): -0.683
[8]
  glycan array binding signal (z-score): 0.137
[9]
  glycan array binding signal (z-score): -0.554
[10]
  glycan array binding signal (z-score): -0.247
[11]
  glycan array binding signal (z-score): 2.54
[12]
  glycan array binding signal (z-score): 1.81
[13]
  glycan array binding signal (z-score): -0.618
[14]
  glycan array binding signal (z-score): -0.53
[15]
  glycan array binding signal (z-score): -0.667
Neu5Ac(a2-3)GalNAc
  glycan array binding signal (z-score): -0.698
[16]
  glycan array binding signal (z-score): -0.699
[17]
  glycan array binding signal (z-score): -0.398
[18]
  glycan array binding signal (z-score): -0.316
[19]
  glycan array binding signal (z-score): 1.47
[20]
  glycan array binding signal (z-score): -0.638
Neu5Ac(a2-6)Gal
  glycan array binding signal (z-score): 0.756
[21]
  glycan array binding signal (z-score): 0.149
Neu5Ac(a2-6)Gal(b1-4)Glc
  glycan array binding signal (z-score): -0.655
[22]
  glycan array binding signal (z-score): -0.395
[23]
  glycan array binding signal (z-score): 0.901
[24]
  glycan array binding signal (z-score): 0.764
[25]
  glycan array binding signal (z-score): 0.07
[26]
  glycan array binding signal (z-score): -0.484
[27]
  glycan array binding signal (z-score): 0.072
[28]
  glycan array binding signal (z-score): 1.98
